This note sets out measurements from PubChem BioAssay AID1508623 (National Center for Advancing Translational Sciences (NCATS), 2021).

About 450 (0.94%) of roughly 48,000 compounds were called active. Another 19% or so got no clear call; they are omitted. The call rests on the fitted dose curve; in most records, active means well fitted inhibition curve with a large enough effect; inconclusive means small, poorly fitted or top-dose-only effect; inactive means no such curve, though single readings can be large or run the other way. The list shows a part of the results.

The experiment in a line: Primary qHTS for Identification of Small Molecule Inhibitors of Huntingtin Promoter Activity. Further: nearly all actives have a fitted effect of over 50% in size. The settings on record: HEK293 HTT promoter firefly luciferase reporter (activity 0% = vehicle and -100% = no light), 24 h; series mostly up to 57.5 µM; activity change, negative = inhibition: at the top concentration. In a few lines:
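Luminescence was read after Dual-Glo reagent and a 10 min room-temperature incubation. Values were normalized to vehicle (0% activity) and zero RLU (-100% activity). Reporter HEK293 cells had been exposed to compounds (up to 57.5 uM final) for 24 h.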
Turning to `O=C(Nc1cc(-c2nc3cc(Cl)ccc3o2)ccc1Cl)c1cc([N+](=O)[O-])ccc1N1CCOCC1`, the “activity change, negative = inhibition” value is inactive: 2.81%. The figure for `Cc1ccc(CNCc2cccn2-c2nnc(N3CCCC3)s2)cc1` is inactive: -33.9%; for `O=C(c1ccccc1Cl)N1CCCCC1CCN1CCOCC1` (centres undefined) it is inactive: -5%. For `CCOc1cccc2c1Oc1nc(-c3ccccc3)nc(SCC(=O)Nc3ccc(F)cc3)c1C2`, the “activity change, negative = inhibition” value is inactive: -16.9%. In the case of `CCn1cc(C(=O)O)c(=O)c2cc(F)c(N3CCNCC3)cc21`, the activity change, negative = inhibition result was “inactive”. The figure for `CC(C)(C)OC(=O)N1CCC(c2c(C(=O)N3CCCCC3)cnn2-c2ccccc2Cl)CC1` is inactive: -1.86%; for `Cn1c(=O)oc2cc(S(=O)(=O)CCC(=O)NCCc3ccc(Cl)cc3)ccc21` it is inactive: -9.4% [at 11.5 µM].

Turning to `COc1ccccc1OCc1nc(C#N)c(NCc2ccc(C)cc2)o1`, the “activity change, negative = inhibition” value was inactive: -17.2%. The figure for `Cn1c(=O)c2sccc2n2c(CCCC(=O)NC3CCCCC3)nnc12` is inactive: -29.9%; for `Cc1ccc(Cl)cc1N1CCN(S(=O)(=O)c2cc(Br)cc3c2N(C(=O)C2CC2)CC3)CC1` it is inactive: -8.09%; for `CCOC(=O)CC(NC(=O)CCc1c(C)nc2c(c1C)c(=O)n(C)c(=O)n2C)c1ccc(OCC)c(OC)c1` (centres undefined) it is inactive: 13.7%.

For `CC(=O)Nc1ccc(NC(=O)C(Cc2ccccc2)NS(=O)(=O)c2ccc3c(c2)oc(=O)n3C)cc1` (centres undefined), the “activity change, negative = inhibition” value was inactive: -9.37%. The figure for `CC(C)c1ccc(NS(=O)(=O)c2ccc3[nH]cc(C(=O)NCCc4ccccc4)c(=O)c3c2)cc1` is inactive: -17.8%; for `Cc1ccc(-n2nc(C)c3c(C)cc(=O)n(CC(=O)NC(C)c4ccccc4)c32)cc1` (centres undefined) it is inactive: 11.1%.

As to `CCn1nc(C)c2c(-c3ccccc3)cc(=O)n(C(C)C(=O)NCCc3ccc(OC)c(OC)c3)c21` (centres undefined), the “activity change, negative = inhibition” value is inactive: -13.9%. The figure for `O=S(=O)(c1ccc(Cl)cc1)c1nnn2c1nc(NCc1ccc3c(c1)OCO3)c1sccc12` is inactive: -2.96%. Turning to `Cc1ccc(N(CC(=O)Nc2cc(C)ccc2C)S(=O)(=O)c2c(C)noc2C)cc1`, the “activity change, negative = inhibition” value is inactive: -24.3%. The figure for `COc1ccc(-n2c(SCC(=O)c3ccccc3)nc3c([nH]c4ccccc43)c2=O)cc1` is inactive: -6.53%; for `CCCCN(CC)CCNC(=O)C1CCCN(c2ncnc3onc(C)c23)C1` (centres undefined) it is inactive: 2.9%; for `CCOc1ccccc1NC(=O)C1CCN(S(=O)(=O)c2ccc3c(c2)CCCN3C(C)=O)CC1` it is inactive: -12.8%. The figure for `Cc1ccc(COC(=O)c2[nH]c3c(c2C)C(=O)CC(c2ccc(N(C)C)cc2)C3)cc1` (centres undefined) is inactive: -2.86%; for `CC(=O)c1ccc(NC(=O)c2ccc(-n3cnnc3)cc2)cc1` it is inactive: -5.23% [at 11.5 µM]; for `CCC(=O)N1c2ccccc2CC1C(=O)NCc1ccc(N(C)C)cc1` (centres undefined) it is inactive: -13.8%. The figure for `CCOc1ccc(C(=O)c2oc3ccccc3c2NC(=O)c2cc(-c3ccc(Cl)cc3)on2)cc1` is inactive: -7.45%.
